Data taken from paper PMC12136788.
Some of the results follow.

B1: chr21:44497892:44499936:-|three_prime_utr|ENSG00000175894|control|control|control (ssRNA)
RNA: GGGAGUUCUACAGUCCGACGAUCGUGGGGCGGGACCCCAGCACCUCCCCCAACUGACCCUGGACGUCCAGGUGGGCCCAGCCUAGGGCAUCCCGGGCCUGGGCAUCAGGCAGGGUGCAGGUGGGGCCAUCUGCGGCCCUGGUUCAACAGAGGAUUGAGCAUCA
B2: chr4:87458373:87458474:+|3pUTR|ENSG00000170502|unk|FALSE|unique (ssRNA)
RNA: GGGAGUUCUACAGUCCGACGAUCUCCCUCCCGCUCCCCAUCUUCUGAGGCCUGAAGGAUGUUCCUGCCACAUCAAACUCCUUUAGGCAGAGUACCGCCACUGGAUGUAUAGUUUAAUGUUUCAUCUGAUUUUUCUUUAAAUUACAACAGAGGAUUGAGCAUCA
B3: chr9:122240152:122240253:-|3pUTR|ENSG00000119446|msi1|FALSE|unique (ssRNA)
RNA: GGGAGUUCUACAGUCCGACGAUCCUUCUUGGAGUAUAGAAUUCACCAUUUUAUCCGUAAGUCUUCAAAGGAUUAUGGUGGACUAGAACUUACAUAGUGCAAAAUAGUCUUCUAUUUUUAAUAGGAACUUAGAAAAAACUUAGACAACAGAGGAUUGAGCAUCA
B4: chr9:37441208:37441377:-|CDS|ENSG00000168795|unk|FALSE|unique (ssRNA)
RNA: GGGAGUUCUACAGUCCGACGAUCAGGGUAGGUGAUAUCCAUAUUUUGGAAGUCACAAAUAACCUAGAGCAUAAGUCCACUUUUAGUAUUUCGAAUUUUCUUAACAAGAGCAGAGGAAAUAACUUUACUGCAAAUCAGAACAAUCAACAGAGGAUUGAGCAUCA
B5: ENSG00000198589:be:win_7101|CDS|ENSG00000198589|bound_else_gene|NA|bound_elsewhere_windowed (ssRNA)
RNA: GGGAGUUCUACAGUCCGACGAUCUCUUGGAGUGAUGGAUGAUGGGACAGUAGUGUCUGAUGUCGAACUUCCUCCUUGGGCCAAAACCUCAGAAGAAUUUGUUCACAUAAACAGAUUGGCCCUGGAGAGUGAAUUUGUUUCCUGCAACAGAGGAUUGAGCAUCA
B6: chr11:48137134:48137235:+|CDS|ENSG00000149177|msi1|total|mutant (ssRNA)
RNA: GGGAGUUCUACAGUCCGACGAUCCACGUACUCCUACUGCCUUCUUAUUGAGAAGGCUGGAAAUUCCAGCAACGCAACACAAGCCGUCACGGACAUUGGAAUUACUGACGCUACAGUCACUGAAUUAAUACCUGGCUCAUCAUACAACAGAGGAUUGAGCAUCA
B7: chr17:37686430:37687371:-|three_prime_utr|ENSG00000275410|control|control|control (ssRNA)
RNA: GGGAGUUCUACAGUCCGACGAUCUGCAAUUUCCCCUCUGUGUCCUCUCCCCUCUGCCCUGUAUAUAAUACUAAAGUGUCUAUUAGUUUUCUUUGUAAAGGUCAGAGUCAAAAUUUCAAAAGUGAUCUGUCCCCUCUCCCCUCACAACAGAGGAUUGAGCAUCA
B8: chr18:49591392:49591493:+|3pUTR|ENSG00000101670|msi1|total|mutant (ssRNA)
RNA: GGGAGUUCUACAGUCCGACGAUCCCUUCUCCGUUAUUAUGUGCCACCUCCCCUAUGAGUGACGUGUUUGAUCACCCGCAGAACCGCAAGCAGAGUAUCAUUCAUGCUGGGGCCAGAAUGAUGGCCGGUUGCCAGAUAUAACUGCAACAGAGGAUUGAGCAUCA
B9: chr7:6162096:6162197:-|3pUTR|ENSG00000008256|msi1|total|mutant (ssRNA)
RNA: GGGAGUUCUACAGUCCGACGAUCGUCACAGAACAUUUUGGGGCAGUUUAAUGUGGUACCAAACUGAAAACCGGAGCUAUUUACCGAUGGAGCAGCACUCCGUGCUUCACCGAAAGCAAUGCCUAUUUUUAAAGUUACAAACGCCAACAGAGGAUUGAGCAUCA
B10: chr4:86814747:86814848:+|3pUTR|ENSG00000163629|unk|total|mutant (ssRNA)
RNA: GGGAGUUCUACAGUCCGACGAUCUACUUUAACCUAUGAUAAUUAUUUACAAAAUUUUAACACUAACCAAACAAUGCAGAUCUCCGGGAUGAUUAAAGGCAGCAUUUGAUGACCGCAGACAUUGUUACAAGGACAUGGUGAGUCCAACAGAGGAUUGAGCAUCA
B11: ENSG00000119777:stop:overlap|stop_codon|ENSG00000119777|stop_codon|NA|stop_codon (ssRNA)
RNA: GGGAGUUCUACAGUCCGACGAUCGCCUACAGGACAUUACAGUGGCUUUCUUGGACUGGGCACUUGCCCUGAUAUCCCAGCAGUAGGCCCUGCCUUCCUGGCCACUGAUUUCUGCAUGGGUAGACCAUCCAAGACUGCAGCGGGCAACAGAGGAUUGAGCAUCA
B12: chr8:19954154:19954263:+|CDS|ENSG00000175445|unk|FALSE|unique (ssRNA)
RNA: GGGAGUUCUACAGUCCGACGAUCACCUAACUUUGAGUAUGCAGAAGCCCCGAGUCGUCUUUCUCCUGAUGAUGCAGAUUUUGUAGACGUCUUACACACAUUCACCAGAGGGUCCCCUGGUCGAAGCAUUGGAAUCCAGAAACCCAACAGAGGAUUGAGCAUCA
B13: chr5:76617584:76618642:-|CDS|ENSG00000164220|control|control|control (ssRNA)
RNA: GGGAGUUCUACAGUCCGACGAUCUGAUGGCUUAUAUUUUAUAUAUCUCAUAGCUUUGUGCCUGGGUAGUCUUAAUAGUUGCUUAGAUCCAUUCCUUUAUUUUCUCAUGUCAAAAACCAGAAAUCACUCCACUGCUUACCUUACCAACAGAGGAUUGAGCAUCA
B14: chr20:57607060:57607300:-|CDS|ENSG00000124256|control|control|control (ssRNA)
RNA: GGGAGUUCUACAGUCCGACGAUCCCUGUGAAUGUUGAUAGUUUGACCUCCUCCCAUGAAUCACAAAUGUUCUUAACGGCAUGUAGAUUGGUGAUCUUUUCCAGAAGAUUUUCAACUUACUUUGCCCAGAUCCAUCUGAGGAAUCAACAGAGGAUUGAGCAUCA
B15: chr2:111862450:111862553:-|CDS|ENSG00000153107|unk|FALSE|unique (ssRNA)
RNA: GGGAGUUCUACAGUCCGACGAUCUCUUUUUCAGGGGUGCAAAGGUUCAACAUUUCAAGCCAUAAUCAGUCUCCAAAGAGACAUAGUAUUUCUCAUUCUCCAAAUAGUAAUUCUAAUGGCUCCUUUCUUGCACCAGAAACGGAGCAACAGAGGAUUGAGCAUCA
B16: chr9:115020670:115020933:-|3pUTR|ENSG00000041982|msi1|total|mutant (ssRNA)
RNA: GGGAGUUCUACAGUCCGACGAUCCUUCUCUCCGGUGGCUCUGGGAAUGGGAGAGGGGCCGGAUGUACAGGGGCCGUUUGUUUCCGAACCAGCCGUAUUUUACAUGAAGCUGUAUAAUUAAUUGUCAUUAUUUUUGUCCGCAAACAACAGAGGAUUGAGCAUCA
B17: chr9:114377124:114377225:-|CDS|ENSG00000106948|msi1|total|mutant (ssRNA)
RNA: GGGAGUUCUACAGUCCGACGAUCUCCGUUGAACUCAGCCCGGCAAGGUCCUGGAGCAGUGGGACAGUGAGCCUCGACCACCCCCGUGACAGCCUUGAUUCUACCUGGGAAGGAGAGACCGAUGGCCCCCAGCCCACUGCCCUGCAACAGAGGAUUGAGCAUCA
B18: chr14:100278170:100278208:+|3pUTR|ENSG00000100811|msi1_unk|total|mutant (ssRNA)
RNA: GGGAGUUCUACAGUCCGACGAUCGCUAUCUUAAUUUUGGUUGUAUUCUUUGAUGUUAACACAUUUUGUAUAAUUGUAUCGUACCGCUGUAUUGAAUCAUGCCGUAUCAAAUAUCCGAUGUGAUUUAACCGUGUUAAUCAAUUUCAACAGAGGAUUGAGCAUCA
B19: chr3:115809552:115809653:-|3pUTR|ENSG00000185565|unk|total|mutant (ssRNA)
RNA: GGGAGUUCUACAGUCCGACGAUCCUCCCUCACCUCUCCUCACCUCCACCCCCUCCCCAGAGCACCCGUCAUGCCGCAAAUGCCCGGAAGUGCCAUUUUCAUUUUCUCCACUGUGCGUGUGUGCUCAAGUCUUUCGCUCUCACGCAACAGAGGAUUGAGCAUCA
B20: chr14:60975662:60975785:-|CDS|ENSG00000126814|unk|total|mutant (ssRNA)
RNA: GGGAGUUCUACAGUCCGACGAUCGAAAGAAAACCCUCUGUGCACGUUGUCAUGAACUUGCCAGCAAAAGCUACCGAGUUUCUCCGUGCUUUCAAGUGGCUUUCCGAUGGGCAGCCAUGCAGCAGUGAGUUCCUUCCCACCGUGCAACAGAGGAUUGAGCAUCA
B21: ENSG00000197063:stop:overlap|stop_codon|ENSG00000197063|stop_codon|NA|stop_codon (ssRNA)
RNA: GGGAGUUCUACAGUCCGACGAUCGCAAGGUGGCCGCCACCAGCGUCAUCACAAUAGUAAAGUCCAAGACGGAUGCCCGAUCGUAGGGACGCGCGUCUGCCCAGGCGGGUCUUUGCGGGGCCACUAGGCACAUGGCGAAUUUGGCAACAGAGGAUUGAGCAUCA
B22: chr6:33573622:33573723:-|3pUTR|ENSG00000030110|unk|FALSE|unique (ssRNA)
RNA: GGGAGUUCUACAGUCCGACGAUCCGAAGUCUUUGCCUUCUCUGUUCCCUUGCAGGGGUCCCCCCUCAAGAGUACAGAAGCUUUAGCAAGUGUGCACUCCAGCUUCGGAGGGCCCCUGCGUGGGGGCCAGUCAGGCUGCAGAGGCAACAGAGGAUUGAGCAUCA

biological target: MSI1 full-length (mouse, UniProt Q61474 1-362); assay: nsRBNS (natural sequence RNA bind-n-seq); RBNS binding buffer (assumed for nsRBNS): 25 mM Tris pH 7.5, 150 mM KCl, 3 mM MgCl2, 0.01% Triton X-100, 500 ug/ml BSA, 20 U/ml SUPERase-In, 4 C; UNK is unkempt and MSI1 is Musashi-1; names of the RNAs are library labels; protein concentration not given here; high values mean tight binding
UniProt Q61474, sequence (Q61474 whole entry): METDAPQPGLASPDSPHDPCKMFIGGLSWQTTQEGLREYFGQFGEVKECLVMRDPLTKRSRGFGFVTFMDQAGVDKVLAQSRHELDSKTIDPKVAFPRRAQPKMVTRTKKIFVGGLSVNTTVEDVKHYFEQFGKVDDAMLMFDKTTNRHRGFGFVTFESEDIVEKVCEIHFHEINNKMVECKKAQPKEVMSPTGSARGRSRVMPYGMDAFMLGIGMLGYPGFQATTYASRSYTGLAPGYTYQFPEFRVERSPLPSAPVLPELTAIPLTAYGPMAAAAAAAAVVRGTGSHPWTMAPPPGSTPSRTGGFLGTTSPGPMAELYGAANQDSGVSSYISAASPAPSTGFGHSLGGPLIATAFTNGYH

Binder	binding signal [enrichment R]
B1	0.368
B2	2.89
B3	20.5
B4	1.13
B5	0.387
B6	0.383
B7	0.979
B8	0.488
B9	0.623
B10	5.19
B11	0.348
B12	0.775
B13	15
B14	0.236
B15	0.368
B16	0.768
B17	0.536
B18	0.455
B19	1.13
B20	0.346
B21	0.565
B22	0.298
